Laboratory results from PubChem BioAssay AID1159614 (National Center for Advancing Translational Sciences (NCATS), 2016).
Screen size: about 45,000 compounds; about 65 (0.1%) were called active. Calls come from the whole dose curve; as a rule, active = well fitted activation curve with a large enough effect; inconclusive = small, poorly fitted or top-dose-only effect; inactive = no such curve, though single readings can be large or run the other way. The list shows a part of the results.

The molecules below were run against Galactocerebrosidase (Homo sapiens) (UniProt P54803) (assay: A Novel Cell-Based Assay to Identify Small Molecules for B -Galactocerebrosidase). Details: 145M-Twi-hGALC-G270D cells (Twitcher mouse brain line with human GALC G270D), HMU-beta-Gal fluorescence, 48 h; series mostly up to 57.5 µM; activation: at the top concentration.
In short: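 Live 145M-Twi cells (Twitcher mouse brain-derived, GALC-null) stably expressing human GALC-G270D, with a wild-type GALC line, were compound-treated. Residual GALC activity was then read as fluorescence from 0.1 mM final HMU-β-gal at pH 5.2; higher signal means activation.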
Note: 0% is about no effect; nearly all actives have a fitted effect of over 65% in size.

Chain of UniProt P54803 (P54803 whole entry, looked up): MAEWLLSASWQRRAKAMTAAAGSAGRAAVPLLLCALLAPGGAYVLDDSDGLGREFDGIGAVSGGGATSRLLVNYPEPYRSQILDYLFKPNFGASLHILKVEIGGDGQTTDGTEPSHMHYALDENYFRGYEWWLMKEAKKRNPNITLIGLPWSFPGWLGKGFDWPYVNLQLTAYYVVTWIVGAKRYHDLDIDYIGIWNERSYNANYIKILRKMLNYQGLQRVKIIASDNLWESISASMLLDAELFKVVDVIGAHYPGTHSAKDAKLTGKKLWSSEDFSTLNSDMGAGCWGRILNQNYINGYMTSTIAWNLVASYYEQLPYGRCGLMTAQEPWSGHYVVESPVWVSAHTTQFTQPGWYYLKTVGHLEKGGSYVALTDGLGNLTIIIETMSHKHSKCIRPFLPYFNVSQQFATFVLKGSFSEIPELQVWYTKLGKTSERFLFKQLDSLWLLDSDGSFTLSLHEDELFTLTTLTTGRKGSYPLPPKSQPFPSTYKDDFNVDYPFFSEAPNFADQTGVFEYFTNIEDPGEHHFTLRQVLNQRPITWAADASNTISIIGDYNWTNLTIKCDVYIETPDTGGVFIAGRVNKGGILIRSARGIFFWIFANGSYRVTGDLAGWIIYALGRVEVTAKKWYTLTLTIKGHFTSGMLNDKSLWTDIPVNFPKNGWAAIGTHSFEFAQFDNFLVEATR

activation, inactive:
CCOc1ccc(/C=C/c2nc(C#N)c(N(C)C)o2)cc1 -13.8%, Cc1csc2nc(COc3ccc(NC(=O)COc4ccc(F)cc4)cc3)cc(=O)n12 -9.53%, Cc1ccc(NC(=O)Cn2cc(S(=O)(=O)N3CCN(c4ccccc4F)CC3)c3ccccc3c2=O)cc1F -16.2%, COc1ccc(N2CCN(C(CNC(=O)c3ccc(C)cc3)c3ccc4c(c3)OCO4)CC2)cc1 (stereo unspecified) -6.99%, COC(=O)c1cc(S(=O)(=O)N2CCN(c3ccc(C)cc3C)CC2)cn1C -5.9%, Cc1sc(-c2cc3ccccc3oc2=O)nc1-c1ccc(Cl)cc1 2.92%, COc1ccc(NC(=O)c2sc3nc[nH]c(=O)c3c2C)cc1 -22.3%, Cc1ccc(-c2cc(C(=O)Oc3ccccc3)c3cccc(C)c3n2)cc1 -11.7%, COc1ccc(-c2noc(-c3ccc(N4CCCCC4)c([N+](=O)[O-])c3)n2)cc1 -5.62%, O=C1CN(C(=O)C2CCCCC2)C(c2ccccc2)c2cc(F)ccc2N1 (stereo unspecified) -23.8%, CCOc1ccc(C2c3c(oc4ccc(C)cc4c3=O)C(=O)N2c2nc(C)c(C)s2)cc1OC (stereo unspecified) -17.3%, CCOC(=O)c1cnc2ccc(OCC)cc2c1N1CCN(c2cccc(Cl)c2)CC1 -21.8%, COC(=O)c1ccccc1NC(=O)Nc1cccc(OCc2cc(=O)n3cccc(C)c3n2)c1 28.9%, CCCCCCOc1ccc(-c2nc3ccc(Br)cc3c(=O)o2)cc1 -2.33%, O=C1CC(c2ccccc2)Cc2[nH]c(=O)c(-c3nc(-c4ccc(F)cc4)cs3)cc21 (stereo unspecified) -7.47%, Cc1ccccc1-c1nc(CS(=O)CC(=O)NCCc2ccc(Cl)cc2)c(C)o1 (stereo unspecified) -10.5%, O=C(CN1C(=O)COc2ccc(S(=O)(=O)N3CCCC3)cc21)N1CCN(c2ccccc2F)CC1 6.39%, CC(C)Oc1ccc(CNC(=O)C2COc3ccccc3C2)cc1 (stereo unspecified) -10.4%, Cc1cc(NC(=O)C2CCCN(S(=O)(=O)c3ccc(Br)s3)C2)ccc1Br (stereo unspecified) 0.153%, COc1ccc(CC(=O)Nc2ccc(-c3nc4ccccc4s3)cc2Cl)cc1 10.6%, Cc1cc(OCC(=O)NCC2(N(C)C)CCCCC2)cc(C)c1Cl -6.36%, Cc1ccc(CCNC(=O)CN2C(=O)COc3ccc(S(=O)(=O)N4CCC(C)CC4)cc32)cc1 -15.7%, CCN1CCN(C(c2cccc(Cl)c2)c2c(O)cc(C)n(CCOC)c2=O)CC1 (stereo unspecified) -18%, Cc1ccc(-c2nnc(SCC(=O)NCCC(C)C)nc2-c2ccc(C)cc2)cc1 -0.386%, CCn1cc(C(=O)NCCCN(CC(C)C)CC(C)C)c(=O)c2cc(S(=O)(=O)N3CCc4ccccc4C3)ccc21 -17%, COc1cccc(C2=NS(=O)(=O)N(C)C(C(=O)Nc3cccc(O)c3)=C2)c1 -12.7%, CCCN(CCC)c1nn2c(=O)c(C(=O)NCc3cccc(OC)c3)cnc2s1 -19.8%, Cc1cc2nn(-c3ccc(F)cc3)nc2cc1NC(=O)c1cc(Cl)ccc1Cl -15.3%, CCCCN1C(=O)C(O)(c2c(C)[nH]c3ccccc23)c2cc(Br)ccc21 (stereo unspecified) -12.4%, O=C(NCc1ccccc1)C(=O)NCC(c1ccco1)S(=O)(=O)c1ccccc1 (stereo unspecified) -17.3%, CCc1ccc(NC(=O)N(Cc2c[nH]c3ccccc23)C2CCCCCC2)cc1 -21.1%, COc1ccc(N2CCN(C(CNC(=O)C(=O)NCc3ccc(F)cc3)c3cccnc3)CC2)cc1 (stereo unspecified) -4.55%, COc1ccc(Cl)cc1NC(=O)CSc1nnc(C)n2c1cc1occc12 -15.6%, O=S(=O)(NCCc1csc(-c2ccc(F)cc2)n1)c1ccc(F)cc1F -8.36%, COc1ccc(N2CC(NC(=O)c3cccs3)CC2=O)cc1OC (stereo unspecified) 16.8%, O=C(Nc1nnc(S(=O)(=O)N2CCCCC2)s1)c1ccc(Cl)cc1 -19.5%, CC(=O)Nc1ccc(NS(=O)(=O)c2ccc3c(c2)CCCN3C(C)=O)cc1 -16.5%, CCc1ccc(-c2[nH]c3c(c2-c2c(-n4cccc4)n(C)c(=O)[nH]c2=O)c(=O)[nH]c(=O)n3C)cc1 -6.98%, COc1ccc(-n2ncc(C(=O)Nc3ccc(C)cc3Cl)c2C2CCN(C(=O)OC(C)(C)C)CC2)cc1 -5.55%, Cc1cccc(C)c1NC(=O)C1CCCN(S(=O)(=O)c2c(C)noc2/C=C/N(C)C)C1 (stereo unspecified) -14.2%, COc1ccccc1CNC(=O)c1ccc(NC(=O)N2CC(C)Sc3ccccc32)cc1 (stereo unspecified) -18.9%, CCOc1ccc(-c2cn3c(n2)sc2cc(C(=O)NCCC4=CCCCC4)ccc23)cc1 -12%, CCOc1ccc(NC(=O)CSc2nnc(CC)c(CC)n2)cc1 0.711%, CCN(CC)CCNC(=O)C1CCCN(c2nnc(C)c3c(C)n(-c4ccc(Cl)cc4)nc23)C1 (stereo unspecified) -13.6%, COc1ccc(S(=O)(=O)NCC(c2ccco2)S(=O)(=O)c2ccc(C)cc2)cc1C (stereo unspecified) -15.9%, CCOC(=O)c1cc(-c2ccc(C)cc2)n(CCC(=O)NCc2ccccc2)c1C -17.5%, COC(=O)c1ccc(NC(=O)CSc2ccc(-c3cccs3)nn2)cc1 -25.9%, Cc1cccc(OCC(=O)Nc2ccc(C(=O)OCc3cc(=O)n4nc(C5CC5)sc4n3)cc2)c1 -6.05%, Cc1ccc(-c2nc3scc(CCNS(=O)(=O)c4ccc(C)c(C)c4)n3n2)cc1 -8.1%, Cc1ccc(-c2noc(-c3cccnc3NCc3ccc(Cl)cc3)n2)cc1 -17.8%, C#CCOc1ccc(C2C(C(=O)OC)=C(C)NC3=C2C(=O)c2ccccc23)cc1OCC (stereo unspecified) -8.89%, CCOc1ccc(Sc2cc(C(=O)NCCCOC)c3ccccc3n2)cc1 -13.4%, Cc1cc(C)c(NC(=O)c2cc(CN3CCOCC3)on2)c(C)c1 -16.8%, CCc1ccc(NC(=O)C(Cc2ccccc2)NS(=O)(=O)c2ccc3c(c2)CCN3C(C)=O)cc1 (stereo unspecified) -11%, CCCc1ncc(C[n+]2ccccc2C)c(N)n1 -3.67%, COc1ccc2cc(S(=O)(=O)c3ccccc3F)c(=O)oc2c1 -4.8%, COc1ccc(-n2c(-c3ccc(F)cc3)cn3c4c(=O)n(C)c(=O)n(C)c4nc23)cc1 -9.5%, CCOc1ccc2ncc3c(-c4ccccc4)nn(CC(=O)Nc4cccc(F)c4)c3c2c1 -12.9%, Cc1ccc(C)c(N2CCN(CCCNC(=O)Cn3c(-c4cccs4)cc4ccccc43)CC2)c1 -4.82%, O=C(Cn1c(=O)oc2ccccc21)NCc1ccccc1Cl -13.2%, O=C(CSc1nc2c(c(=O)[nH]1)CCCC2)Nc1cccc(O)c1 -11.4%
